# The other results are listed elsewhere or left out. These are noisy estimates, calculated here from bound and input reads.
# Biological target: T1, Pho4 (S. cerevisiae) (UniProt P07270)
# T1 sequence: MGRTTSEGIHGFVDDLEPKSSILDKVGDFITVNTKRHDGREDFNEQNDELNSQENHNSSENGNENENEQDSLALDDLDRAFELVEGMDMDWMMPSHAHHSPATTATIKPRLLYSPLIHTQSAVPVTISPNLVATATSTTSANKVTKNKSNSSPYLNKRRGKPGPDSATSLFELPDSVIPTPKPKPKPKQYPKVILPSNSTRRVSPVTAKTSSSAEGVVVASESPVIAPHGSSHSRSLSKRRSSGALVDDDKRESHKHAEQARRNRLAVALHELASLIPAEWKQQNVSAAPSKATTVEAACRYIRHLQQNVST
# Assay: relative binding free energy (BET-seq); higher = weaker binding
# Conditions: reference: library average
row,Sequence,relative binding free energy
1,TTTTCCACGTGTAGGC,0.26 kcal/mol
2,TTGGTCACGTGCGGTC,0.09 kcal/mol
3,AGTCGCACGTGGGCTT,-0.13 kcal/mol
4,TAATGCACGTGGACGT,0.14 kcal/mol
5,TAGTACACGTGAAATT,0.44 kcal/mol
6,TGTGTCACGTGTCGGT,0.07 kcal/mol
7,AAGGACACGTGGTTGG,-0.02 kcal/mol
8,GTTGTCACGTGTTTGG,0.22 kcal/mol
9,GATGTCACGTGTTGAG,0.08 kcal/mol
10,CTGTTCACGTGGAGTG,0.24 kcal/mol
11,ATTAGCACGTGGTATT,-0.19 kcal/mol
12,AGAATCACGTGAGGTG,0.39 kcal/mol
13,GTGATCACGTGATCGG,0.27 kcal/mol
14,GGTATCACGTGGTCAG,0.19 kcal/mol
15,TTTGTCACGTGTATTT,0.12 kcal/mol
16,TTGGTCACGTGACTAT,0.23 kcal/mol
17,TAGAACACGTGGCGTT,-0.05 kcal/mol
18,GTGATCACGTGGATAG,0.04 kcal/mol
19,GTTTGCACGTGAAAGA,0.16 kcal/mol
20,GTGTTCACGTGCATAG,0.17 kcal/mol
21,TATGGCACGTGTGATA,-0.07 kcal/mol
22,TTCTTCACGTGCATAT,0.3 kcal/mol
23,GTTGGCACGTGCGGAA,-0.27 kcal/mol

row,Sequence,relative binding free energy
1,GTGTTCACGTGTATGA,0.24 kcal/mol
2,AGACGCACGTGTGAGG,0.03 kcal/mol
3,TAGGACACGTGTTCGG,0 kcal/mol
4,TGCTACACGTGCGGGG,-0.08 kcal/mol
5,AGTGTCACGTGTGGTC,0.03 kcal/mol
6,TCGGACACGTGGGTGT,-0.04 kcal/mol
7,AATAGCACGTGAGTAG,0.25 kcal/mol
8,TACGTCACGTGGGGGT,-0.09 kcal/mol
9,CGGGGCACGTGTGGCG,0.04 kcal/mol
10,TGCTTCACGTGTGGGC,0.18 kcal/mol
11,TAGGGCACGTGTTGTT,-0.08 kcal/mol
12,TGGGTCACGTGAGAAA,0.16 kcal/mol
13,TGTACCACGTGTAGTG,-0.18 kcal/mol
14,GGGTGCACGTGTAAGA,0.12 kcal/mol
15,TGTTGCACGTGCATTG,0.07 kcal/mol
16,AGGGGCACGTGATGTA,-0.03 kcal/mol
17,CGGAGCACGTGGGGCA,-0.26 kcal/mol
18,GTTTCCACGTGGTTTT,0.11 kcal/mol
19,TAAAGCACGTGGTGTA,-0.15 kcal/mol
20,ATTCTCACGTGTGTGC,0.19 kcal/mol
21,ATTTGCACGTGTGCGC,0.04 kcal/mol
22,GTGTGCACGTGAGGCA,0.14 kcal/mol
23,CTTTGCACGTGTTGCT,-0.13 kcal/mol

row,Sequence,relative binding free energy
1,AGTGTCACGTGTGAAA,0.33 kcal/mol
2,AGGTACACGTGGAGTC,0.06 kcal/mol
3,GGTACCACGTGGCGGT,-0.07 kcal/mol
4,CGTTTCACGTGGCTTG,0.23 kcal/mol
5,AGGGCCACGTGAGGTG,0.11 kcal/mol
6,ATTCTCACGTGTTGGG,0.22 kcal/mol
7,CGGCGCACGTGGGAAG,-0.05 kcal/mol
8,AGGTTCACGTGACGTT,0.33 kcal/mol
9,TGCGGCACGTGAGTCG,0.08 kcal/mol
10,TGTGTCACGTGTATAC,0.1 kcal/mol
11,TTCTTCACGTGATGGA,0.14 kcal/mol
12,AGTATCACGTGCTTTT,0.09 kcal/mol
13,GTATACACGTGAGGTT,0.38 kcal/mol
14,GGGGTCACGTGGTGCC,0.15 kcal/mol
15,AGAGTCACGTGTGTAT,0.21 kcal/mol
16,GTGTTCACGTGTGATC,0.2 kcal/mol
17,GTTTGCACGTGTCTTA,0.12 kcal/mol
18,GTACTCACGTGTATGG,0.18 kcal/mol
19,AGAAGCACGTGTTTGA,-0.12 kcal/mol
20,AGGTTCACGTGTGGCG,0.21 kcal/mol
21,CTAATCACGTGCGGGG,0.26 kcal/mol
22,AGGTTCACGTGCAGTG,0.19 kcal/mol
23,TATAGCACGTGGAAAT,0.27 kcal/mol

row,Sequence,relative binding free energy
1,GTTATCACGTGGATTT,0.29 kcal/mol
2,AATAACACGTGTTAGG,-0.04 kcal/mol
3,TGGATCACGTGGAGTA,0.27 kcal/mol
4,TTAGACACGTGGGGAA,-0.11 kcal/mol
5,GAATGCACGTGGATGA,0.09 kcal/mol
6,TGGTACACGTGTATGA,0.17 kcal/mol
7,TATGGCACGTGTTAAA,-0.09 kcal/mol
8,GGTCACACGTGTTTGA,0.22 kcal/mol
9,GATGGCACGTGGAGGA,-0.08 kcal/mol
10,TGCGTCACGTGGAGGA,0.04 kcal/mol
11,AGGATCACGTGGTCGG,0.02 kcal/mol
12,TTTAACACGTGTGCTA,-0.06 kcal/mol
13,TATGACACGTGGTCAG,-0.03 kcal/mol
14,TTTGGCACGTGCGGAG,-0.1 kcal/mol
15,AGGGGCACGTGGTTCA,-0.26 kcal/mol
16,TGCTTCACGTGGCAGT,0.17 kcal/mol
17,AGGTGCACGTGGCATA,-0.19 kcal/mol
18,GTGGGCACGTGCTGAT,0.06 kcal/mol
19,ATATTCACGTGCAGTT,0.1 kcal/mol
20,ATAAGCACGTGAGAGT,0.18 kcal/mol
21,GCTAGCACGTGGTTGG,0.06 kcal/mol
22,ATTAACACGTGTAAAT,0.27 kcal/mol
23,TTCAGCACGTGTTTAT,-0.01 kcal/mol

row,Sequence,relative binding free energy
1,AATTTCACGTGATGGG,0.32 kcal/mol
2,TTTGGCACGTGGGTTA,-0.12 kcal/mol
3,TTGGGCACGTGATGAG,0.07 kcal/mol
4,TGTACCACGTGGTCGT,-0.2 kcal/mol
5,TTGTACACGTGTTAGT,0.05 kcal/mol
6,TGGATCACGTGGGTTC,0.04 kcal/mol
7,TAAATCACGTGAGGGT,0.22 kcal/mol
8,GTTGGCACGTGTGTTA,0.08 kcal/mol
9,TGACTCACGTGCGTGG,0.07 kcal/mol
10,TGATGCACGTGGGCAG,-0.28 kcal/mol
11,GTGTGCACGTGTCTCG,0.03 kcal/mol
12,AGGGGCACGTGAGTTT,0.11 kcal/mol
13,GGAAGCACGTGGGTGC,-0.23 kcal/mol
14,AGTTGCACGTGACGTT,0.05 kcal/mol
15,CGTGTCACGTGGGTGG,0.02 kcal/mol
16,TTTAACACGTGAGCGG,0.09 kcal/mol
17,TCGTACACGTGGTAGT,-0.1 kcal/mol
18,GGAATCACGTGATTGG,0.45 kcal/mol
19,CGAGACACGTGTTAGT,0.1 kcal/mol
20,GCGTTCACGTGTGTGC,0.15 kcal/mol
21,AGCGGCACGTGGCGAT,-0.04 kcal/mol
22,ATGTTCACGTGATCAT,0.24 kcal/mol
23,AAAGCCACGTGGGGTT,-0.28 kcal/mol

# Source: the BET-seq Pho4 binding data (Le et al. 2018)
